Screen size: about 410,000 compounds; about 6,400 (1.6%) were called active. Inconclusive results, whose numbers are uncertain, are shown with a selection of clear calls. Calls follow the shape of the dose curve; as a rule, active = well fitted inhibition curve with a large enough effect; inconclusive = small, poorly fitted or top-dose-only effect; inactive = no such curve, though single readings can be large or run the other way. No potency is given beside an inconclusive call; the fits are too rough.
molecular target: Glucagon-like peptide 1 receptor (Homo sapiens) (UniProt P43220); experiment: qHTS of GLP-1 Receptor Inverse Agonists (Inhibition Mode); settings: HEK293 GLP-1R CRE-luciferase, luminescence, 24 h, GLP-1R form is constitutively active; activity change, negative = inhibition: at 38.3 µM (top of the series) unless noted; also: nearly all actives have a fitted effect of over 55% in size
Sequence of UniProt P43220 (P43220 whole entry, looked up): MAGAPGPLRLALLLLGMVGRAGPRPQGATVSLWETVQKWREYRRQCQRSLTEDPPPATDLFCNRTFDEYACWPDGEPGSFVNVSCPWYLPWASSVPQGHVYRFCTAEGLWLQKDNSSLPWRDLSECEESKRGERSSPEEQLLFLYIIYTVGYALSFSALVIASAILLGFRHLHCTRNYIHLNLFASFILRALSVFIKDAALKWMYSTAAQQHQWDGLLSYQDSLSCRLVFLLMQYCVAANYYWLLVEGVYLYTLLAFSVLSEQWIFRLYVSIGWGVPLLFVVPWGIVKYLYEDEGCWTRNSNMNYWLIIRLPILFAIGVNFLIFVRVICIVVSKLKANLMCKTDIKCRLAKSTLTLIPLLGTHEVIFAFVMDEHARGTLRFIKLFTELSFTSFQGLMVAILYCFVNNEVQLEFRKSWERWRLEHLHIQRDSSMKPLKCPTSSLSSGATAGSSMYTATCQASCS
Procedure, shortened: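 Inverse agonism was detected as reduced cAMP-driven luciferase luminescence after 24 h compound treatment. The cells were HEK293 clones expressing constitutively active human GLP-1R with the reporter. Reporter-only and GPR119 cell lines served as counterscreen controls.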
% is scaled to controls: 0 for no effect and ±100 for the full control effect; potency is read from the fitted curve at half-maximal effect; tags tell the direction and shape of the fitted curve.

Structure (SMILES)	Potency	activity change, negative = inhibition
c1ccc(-c2csc3ncnc(N4CCc5ccccc5C4)c23)cc1	inconclusive [inhibitor, single point]	–
N/C(CSc1nc(-c2ccccc2)c(-c2ccccc2)o1)=N\O	inconclusive [inhibitor, single point]	–
CCOC(=O)C1CCCN(C(=O)c2cnn3c(C(F)(F)F)cc(-c4ccccc4)nc23)C1 (configuration not stated)	inconclusive [inhibitor, single point]	–
CCc1ccc(NC(=O)CSC2=Nc3ccccc3C3=NC(CC(=O)NC4CCCCC4)C(=O)N23)cc1 (configuration not stated)	inconclusive [inhibitor, partial curve, poor fit]	–
CCOc1ccc(S(=O)(=O)N2CCC(C(=O)OCc3ccc(OC)cc3)CC2)cc1	inconclusive [inhibitor, single point]	–
Cc1cc(C)c2[nH]c(=O)c(C(c3nnnn3CC3CCCO3)N3CCCC(C)C3)cc2c1 (configuration not stated)	–	inactive: 0%
Cc1ccc(N/N=C/c2ccc3c(c2)OCCO3)cc1Cl	inconclusive [inhibitor, single point]	–
OC(COC(c1ccc(Cl)cc1)c1ccc(Cl)cc1)CN1CCN(c2ccccn2)CC1 (configuration not stated)	inconclusive [inhibitor, partial curve, poor fit]	–
Cc1cccc(OCCCC(=O)Nc2ccc(S(=O)(=O)Nc3onc(C)c3C)cc2)c1C	inconclusive [inhibitor, full curve]	–
COc1ccc(N(Cc2cccs2)C(=O)c2ccc(Br)o2)cc1	inconclusive [inhibitor, single point]	–
Cc1ccc(NC(=S)Nc2cccc3ccccc23)cc1	inconclusive [inhibitor, partial curve]	–
CCOC(=O)[C@]12CCC=C1N(Cc1cccc3ccccc13)C(=O)[C@H](CC(=O)NCCc1ccccc1OC)C2	inconclusive [inhibitor, partial curve, poor fit]	–
Nc1cc(S(=O)(=O)N2CCCCC2)ccc1Oc1ccc(Cl)cc1	inconclusive [inhibitor, single point]	–
CCOc1ccccc1N1CCN(C(=O)c2cc3cc(OC)ccc3[nH]2)CC1	inconclusive [inhibitor, partial curve, poor fit]	–
CCOC(=O)Cn1nc(-c2ccccc2)c2cnc3ccc(OCC)cc3c21	–	inactive: -19.4%
COc1ccccc1-c1cc(-c2ccccc2)nc(=O)[nH]1	–	inactive: 23.6%
CCCCN(CCCC)CCNC(=O)c1cn(CC)c2ccc(S(=O)(=O)N3CCc4ccccc4C3)cc2c1=O	inconclusive [inhibitor, partial curve, poor fit]	–
